Among all 52,000 compounds or so, about 1,700 (3.3%) were called active. No stated cut-off is given here; in the data, active means survival mostly below about 52% (no sharp cut-off); inactive means mostly above about 56%. This is one part of the list.

This assay has as its system Wild type. The assay is described as follows: growth inhibition of S. aureus wild type versus tarO mutant, primary screen, teichoic acid synthesis inhibitors, RN4220, OD600 (AID 463173). The settings on record: S. aureus RN4220 wild type/DeltatarO growth, OD600, 18 h, active compounds read low, screened at 18.75 µg/mL (by protocol).
`CCN(C(=O)c1cc2c(s1)-c1ccccc1OC2)c1cc(Cl)ccc1OC`: the survival is active: 8%.
`CC1Cc2cc(S(=O)(=O)NCc3ccccc3Cl)ccc2N1C(=O)C1CCC1` (stereo not given): the survival is inactive: 74%.
In the case of `Cn1c(-c2ccccc2)c(CCO)c2ccccc21`, the survival was inactive: 113%.
For the compound `Cc1ccc(NC(=O)N2CCc3cc(S(=O)(=O)N4CCC(C)CC4)ccc32)cc1C`, the survival was inactive: 83%.
Turning to `O=S(=O)(NCCS(=O)(=O)N1CCN(c2ccccc2F)CC1)c1ccc(Cl)cc1`, the survival is inactive: 105%.
With `Cc1ccccc1NS(=O)(=O)c1nnc(NC(=O)c2ccccc2C)s1` the figure was inactive: 68%.
For the compound `NC(=O)c1cccc(S(=O)(=O)N2CCCCC2)c1`, the survival was inactive: 99%.
`CCN(CC)c1ccc(C(=O)N2CCC(c3c[nH]c4ccccc34)(c3c[nH]c4ccccc34)CC2)cc1`: the survival was inactive: 90%.
For the compound `CCOC(=O)c1ccc(NC(=O)c2ncn(-c3ccccc3)n2)cc1`, the survival was inactive: 88%.
Take `COc1ccc(N2CCN(C(=O)CCn3c(=O)c4cccn4c4cccnc43)CC2)cc1`: the survival is inactive: 93%.
In the case of `CC(NC(=O)Nc1cc(Cl)ccc1Cl)c1c(-n2cccc2)sc2c1CCCC2` (stereo not given) it was inactive: 67%.
With `Cc1ccc(-c2nc(-c3cc4cccc(OCc5cccc(C)c5)c4oc3=O)no2)cc1` the figure was inactive: 71%; with `CCn1c(SCC(=O)OC)nnc1-c1ccc(O)cc1`, inactive: 114%; with `O=C(NC1CCN(Cc2ccccc2)CC1)c1ccc(Cn2c(=O)c3ccccc3n(Cc3ccccc3)c2=O)cc1`, inactive: 86%.
With `CCc1c(C)nc2nncn2c1Nc1ccc(C(C)C)cc1` the figure was inactive: 83%.
`N#CC1(Nc2ccccc2Cl)C(=O)Nc2ccccc21` (stereo not given): the survival is inactive: 114%.
Turning to `Cc1ccc(CNC(=O)c2ccc(-n3cnc4cccnc43)cc2)cc1`, the survival was inactive: 136%.
Regarding `Cc1ccc(NC(=O)/C(C#N)=C/c2cc(C)n(-c3ccc(F)cc3)c2C)cc1C`, the survival was inactive: 79%.
In the case of `CCc1ccc(NC(=O)Cn2c3ncccc3c(=O)n2-c2ccc(C)c(C)c2)cc1` it was inactive: 97%; in that of `O=C(c1ccc2c(c1)N(Cc1ccccc1F)C(=O)c1ccccc1S2=O)N1CCN(c2ccccc2)CC1` (stereo not given), inactive: 90%.
With `O=C(NCCc1csc(-c2cccc(F)c2)n1)c1cccs1` the figure was inactive: 85%; with `Cc1ccc(-c2noc(CN3C(C)CCCC3C)n2)cc1` (stereo not given), inactive: 105%; with `O=C(Cc1ccccc1)Nc1sc2c(c1C(=O)Nc1ccc(Cl)cc1)CCCC2`, inactive: 72%.
In the case of `Cc1cccc(NC(=O)CSc2nc3c([nH]c4ccccc43)c(=O)n2C)c1C` it was inactive: 59%; in that of `N#C/C(=C\c1ccc(Cl)cc1)c1nc2ccccc2[nH]1`, inactive: 82%.
Turning to `CCOc1ccc(NC(=O)c2ccc(-c3nc(COc4ccccc4)c(C)o3)cc2)cc1`, the survival was inactive: 89%.
Take `CCOC(=O)c1ccc(NS(=O)(=O)c2ccc(Br)s2)cc1`: the survival is inactive: 64%.
As for `COc1ccccc1NC(=O)CSc1oc(-c2cccs2)nc1S(=O)(=O)c1ccc(Br)cc1`, the survival is inactive: 84%.
As for `CC(NC(=O)Nc1ccccc1C(F)(F)F)c1c(-n2cccc2)sc2c1CCCC2` (stereo not given), the survival is inactive: 106%.
With `COc1ccc(NCc2cc3cc4c(cc3n(CC(=O)Nc3ccc(C)cc3)c2=O)OCO4)cc1` the figure was inactive: 93%.
As to `COC1(OC)CCCc2c1no[n+]2[O-]`, the survival was inactive: 109%.
With `COc1ccccc1CNC(=O)Cn1ncc2c3ccccc3n(Cc3ccccc3C)c2c1=O`, the survival was inactive: 85%.
With `CCOc1ccccc1NC(=O)C1CCN(S(=O)(=O)c2ccccc2)CC1` the figure was inactive: 71%; with `COc1ccc(-c2nc(SCC(=O)Nc3ccc4c(c3)OCO4)c(-c3ccc(OC)cc3)[nH]2)cc1`, inactive: 75%.
Regarding `CCOc1ccc(S(=O)(=O)N2CCN(c3c(C)cccc3C)CC2)c2ccccc12`, the survival is inactive: 80%.
With `CN(C(=O)CSc1nc2c(c(=O)[nH]1)CCCC2)c1ccccc1` the figure was inactive: 90%; with `Cc1cc(C)cc(OC(=O)c2snnc2C)c1`, inactive: 92%; with `COc1cc(NC(=O)Cn2ncc3c([nH]c4ccc(C)cc43)c2=O)cc(OC)c1OC`, inactive: 82%.
In the case of `COc1cc(C(=O)Nc2ccc3oc(-c4ccccc4)nc3c2)cc(OC)c1OC` it was inactive: 62%; in that of `O=C(NC(Nc1ncccn1)C(=O)c1ccccc1)c1ccccc1` (stereo not given), inactive: 119%.
In the case of `COc1ccc(NC(=O)CSc2nnc(-c3cccs3)o2)cc1` it was inactive: 88%; in that of `CCOc1ccccc1Nc1cc(-c2ccccc2)nc(C)n1`, inactive: 78%; in that of `Cn1c2ccccc2c2c(C(=O)N3CCN(c4ccc(F)cc4)CC3)cn(C3CCCCC3)c(=O)c21`, inactive: 133%.
On to `COc1cc(Cl)c(C)cc1NC(=O)CSc1ncc(S(=O)(=O)c2ccc(C(C)(C)C)cc2)c(=O)[nH]1`, for which the survival is inactive: 102%.
In the case of `O=C1Nc2ccc(S(=O)(=O)Nc3ccccc3O)c3cccc1c23` it was inactive: 88%; in that of `Cc1cc(Cl)c2cccc(Br)c2n1`, inactive: 101%; in that of `Cc1ccc(C(=O)ON=C2CCN(C)CC2)cc1`, inactive: 108%.
In the case of `O=C(O)/C=C/C(=O)Nc1nnc(-c2ccccc2F)s1` it was inactive: 117%.
In the case of `CC(C)CCN(Cc1ccco1)C(=O)c1cc2c(Cl)nc3ccccc3c2s1` it was inactive: 77%.
Consider `Cc1ccc(S(=O)(=O)CC(=O)Nc2sc3c(c2C#N)CCCCC3)cc1`, for which the survival was inactive: 64%.
For the compound `CN(C)c1ccc(-n2nc3ccc4ccccc4c3n2)cc1`, the survival was inactive: 109%.
In the case of `CCOc1ccc(C2Nc3ccccc3-c3nnc(SCc4ccccc4)nc3O2)cc1OC` (stereo not given), the survival was inactive: 83%.
Regarding `CC(Oc1ccccc1)C(=O)Nc1ccccc1` (stereo not given), the survival was inactive: 117%.
Consider `COc1ccc(-c2noc(CSCC(=O)Nc3cccc(C(F)(F)F)c3)n2)cc1OC`, for which the survival was inactive: 75%.
With `CC(=O)Nc1cccc(NC(=O)C2CCCN2C(=O)Nc2ccccc2Cl)c1` (stereo not given) the figure was inactive: 107%; with `CCCOc1ccc(-c2nn(-c3ccccc3)cc2C2NC(=O)NC(C)=C2C(=O)OC)cc1C` (stereo not given), inactive: 67%.
As to `CCOc1ccccc1NC(=O)Nc1nnc(N2CCCCCC2)s1`, the survival was inactive: 85%.
Regarding `Cc1ccccc1CNC(=O)C1CCCN(S(=O)(=O)N(C)c2ccc(F)cc2)C1` (stereo not given), the survival is inactive: 90%.
As to `CCC(=O)N1CCc2cc(Br)cc(S(=O)(=O)CCC(=O)NCCc3ccc(Cl)cc3)c21`, the survival is inactive: 80%.
With `CCc1cccc(NC(=O)c2ccc(CN3C(=O)C(C)=C(c4ccc(OC)cc4)S3(=O)=O)cc2)c1` the figure was inactive: 82%; with `CCc1ccc2oc(-c3cccc(NC(=O)c4ccc(N5CCC(C)CC5)c([N+](=O)[O-])c4)c3)nc2c1`, inactive: 71%; with `COc1cccc(NC(=O)Cn2cc(S(=O)(=O)N3CCCC3)c(S(=O)(=O)N3CCCC3)c2)c1`, inactive: 99%.
For `Cc1ccccc1CNC(=O)Cn1ncn2nc(-c3cccs3)cc2c1=O`, the survival was inactive: 120%.
For the compound `CCOc1ccccc1CNC(=O)c1cc2cc(S(=O)(=O)N3CCCCC3)ccc2n1C`, the survival is inactive: 75%.
In the case of `CC(=O)Nc1ccc(NC(=O)CCNS(=O)(=O)c2cccc3nsnc23)cc1` it was inactive: 89%; in that of `CCC(Oc1ccccc1)C(=O)Nc1ccc2oc(-c3ccc(OC)cc3)nc2c1` (stereo not given), inactive: 116%.
In the case of `Cc1cccc(CSc2cn(CC(=O)N3CCCC3)c3ccccc23)c1` it was inactive: 67%; in that of `Cc1cc(N2CCCCC2)nc2ccc(NC(=O)/C=C/c3ccccc3OC(C)C)cc12`, inactive: 84%; in that of `CC1(C(=O)C[n+]2cccc(C(N)=O)c2)CCC(=O)O1` (stereo not given), inactive: 102%.
In the case of `O=C(COc1ccc(S(=O)(=O)NC2CCCCC2)cc1)Nc1ccc(C(F)(F)F)cc1` it was inactive: 80%.
For the compound `CCOc1ccc(N(CC)S(=O)(=O)N2CCCC(C(=O)NCc3ccccc3Cl)C2)cc1` (stereo not given), the survival was inactive: 85%.
In the case of `CCOc1cccc(CC(=O)N2CCc3c([nH]c4ccccc34)C2c2ccc(F)cc2)c1OCC` (stereo not given) it was inactive: 65%.
In the case of `Cc1ccc(CNC(=O)CSCc2ccc(F)cc2)cc1` it was inactive: 101%.
In the case of `O=S(=O)(c1ccccc1)n1nc(-c2ccccc2)nc1NCc1ccc(Cl)cc1` it was inactive: 73%.
In the case of `Cc1ccc(C(=O)COC(=O)C(CC(C)C)NC(=O)C2CCC(C)CC2)cc1` (stereo not given), the survival was inactive: 85%.
As for `CCc1ccccc1NC(=O)c1ccc2nc(CCc3ccccc3)oc2c1`, the survival was inactive: 80%.
In the case of `CCCCNC(=O)CCn1c(=O)c2ccccc2n(Cc2ccccc2C#N)c1=O` it was inactive: 89%.
With `CCOc1ccc(CC(=O)Nc2c(C(=O)c3ccc(C)cc3)oc3ccccc23)cc1OCC` the figure was inactive: 56%; with `CCC(=O)N1CCc2cc(Br)cc(S(=O)(=O)N3CCCC(C(=O)Nc4cccc(Cl)c4C)C3)c21` (stereo not given), inactive: 94%.
Consider `COc1cc(C2N=C(N)Nc3nc4ccccc4n32)ccc1OCCC(C)C` (stereo not given), for which the survival is inactive: 85%.
Turning to `O=C(Cc1cccc([N+](=O)[O-])c1)NCc1nc2cccnc2n1Cc1ccc(F)cc1`, the survival is inactive: 133%.
In the case of `CC(=O)c1cccc(NC(=O)C2CCCN(c3nnc(-n4cccc4)s3)C2)c1` (stereo not given) it was inactive: 71%; in that of `CCOc1ccc(NS(=O)(=O)c2cc(Br)cc3c2N(C(=O)C2CC2)CC3)cc1`, inactive: 63%; in that of `CCCN(CCC)CCCNC(=O)C1CCCN(S(=O)(=O)c2cccc3nsnc23)C1` (stereo not given), inactive: 80%.
In the case of `Cn1c(=O)cc(OCCCC(=O)Nc2ccc(F)cc2)c2ccccc21` it was inactive: 129%.
With `Cc1ccccc1-c1nc(CS(=O)(=O)CC(=O)N2CCN(c3ccccc3)CC2)c(C)o1` the figure was inactive: 74%.
For `CCOC(=O)c1cc(C)n(CC2CCC(C(=O)Nc3ccc(Cl)cc3)CC2)c1C` (stereo not given), the survival is inactive: 64%.
As to `CCC1CCc2nc3sc(C(=O)Nc4ccc(F)cc4F)c(N)c3cc2C1` (stereo not given), the survival was inactive: 92%.
Turning to `COc1cc(OC)c(NC(=O)NC(C)c2c(-n3cccc3)sc(C)c2C)cc1Cl` (stereo not given), the survival was inactive: 127%.
With `Cc1ccc2cccc(NC(=O)c3ccc(-c4cccc([N+](=O)[O-])c4)o3)c2n1` the figure was inactive: 93%.

Values taken from PubChem BioAssay AID463173 (ICCB-Longwood Screening Facility, Harvard Medical School, 2010).
